Assay results from the RNAGym collection of RNA variant scans (doi:10.1093/nar/gkz1192).
The source gives no read counts; variants with many changes may rest on few reads.

B1: CPEB3 Ribozyme (parent)
chain: UAACAGGGGGCCACAGCAGAAGCGUUCACGUCGCAGCCCCUGUCAGAUUCUGGUGAAUCUGCGAAUUCUGCUGUAUAUCUC

Variants of: B1
Test: self-cleavage, relative activity (ratio to wild type); higher = more cleavage; in vitro, sequencing
In short: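 Barcoded CPEB3 ribozyme mutants, produced by rounds of error-prone PCR, self-cleaved while being transcribed with T7 RNA polymerase for 5 hours at 37°C and during a subsequent 15 min DNase I step before EDTA was added. Sequencing of template-switched cDNA on Illumina gave cleaved and total reads, and DNA sequencing assigned barcodes to variants. Each variant's relative activity is its cleaved/total read fraction divided by the unmutated ribozyme's fraction, averaged across three batches. A variant needed a minimum of 5 reads.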

Which self-cleavage does the source give for UAACAGGGGGCCACAGCAGAAGCGUUCACGUCGCAGCCCCUGUCAGAUUCUGGUGAAUCUGCGGAUUCUGCUGAAUAUCCC here?
The self-cleavage was 1.19.

Which self-cleavage does the source give for UAACAGGGGGCCACAGCAGAAGCGUUCACGUCGCAGCCCCUGUCAGAUUCUGGUGAAUCUGCGUGUUCUGCCGUAUAUCUC here?
The self-cleavage was 0.24.

For UAACAGGGGGCCACAGCAGAAGCGUUCACGUCGCAGCCCCUGUCAGAUUCUGGUGAAUCUGCGAGUCCUGCUGUAUAUCCC, which self-cleavage is on record?
Its self-cleavage is 0.3.

For UAACAGGGGGCCACAGCAGAAGCGUUCACGUCGCAGCCCCUGUCAGAUUCUGGUGAAUCUGCGUAAUCAGCUGUAUAUCUC, which self-cleavage is on record?
The self-cleavage was 0.29.

Which self-cleavage does the source give for UAACAGGGGGCCACAGCAGAAGCGUUCACGUCGCAGCCCCUGUCAGAUUCUGGUGAAUCUGCGUAUUCUGCCGUAUAUCAC here?
Its self-cleavage is 0.5.

With UAACAGGGGGCCACAGCAGAAGCGUUCACGUCGCAGCCCCUGUCAGAUUCUGGUGAAUCUGCGUAUCCUGCCGUAUAUCUC as the variant, how does the self-cleavage read?
The self-cleavage was 0.28.

For UAACAGGGGGCCACAGCAGAAGCGUUCACGUCGCAGCCCCUGUCAGAUUCUGGUGAAUCUGCGUAUCCUGCUGUAUAUCAC, which self-cleavage is on record?
The self-cleavage was 0.47.

For UAACAGGGGGCCACAGCAGAAGCGUUCACGUCGCAGCCCCUGUCAGAUUCUGGUGAAUCUGCGAUUUCUGCGGUAUAACUC, which self-cleavage is on record?
The self-cleavage was 0.33.

For UAACAGGGGGCCACAGCAGAAGCGUUCACGUCGCAGCCCCUGUCAGAUUCUGGUGAAUCUGCGAGUUCCGCCGUAUGUCUC, which self-cleavage is on record?
The self-cleavage was 0.4.

With UAACAGGGGGCCACAGCAGAAGCGUUCACGUCGCAGCCCCUGUCAGAUUCUGGUGAAUCUGCGGAUUCUACUGUAUACCUC as the variant, how does the self-cleavage read?
The self-cleavage was 0.32.

For UAACAGGGGGCCACAGCAGAAGCGUUCACGUCGCAGCCCCUGUCAGAUUCUGGUGAAUCUGCGUAUUCUGCUGUUUUUCUC, which self-cleavage is on record?
The self-cleavage was 0.47.

With UAACAGGGGGCCACAGCAGAAGCGUUCACGUCGCAGCCCCUGUCAGAUUCUGGUGAAUCUGCGAGUUCUGCUGCAUACCUC as the variant, how does the self-cleavage read?
The self-cleavage was 0.64.

With UAACAGGGGGCCACAGCAGAAGCGUUCACGUCGCAGCCCCUGUCAGAUUCUGGUGAAUCUGCGGACUCUGCAGUAUAUCUC as the variant, how does the self-cleavage read?
The self-cleavage was 0.21.

Which self-cleavage does the source give for UAACAGGGGGCCACAGCAGAAGCGUUCACGUCGCAGCCCCUGUCAGAUUCUGGUGAAUCUGCGGAUUCUGCAGUAUAUCCC here?
Its self-cleavage is 1.08.

For UAACAGGGGGCCACAGCAGAAGCGUUCACGUCGCAGCCCCUGUCAGAUUCUGGUGAAUCUGCGGAUUCUGGUGUAUAUCAC, which self-cleavage is on record?
The self-cleavage was 0.14.

Which self-cleavage does the source give for UAACAGGGGGCCACAGCAGAAGCGUUCACGUCGCAGCCCCUGUCAGAUUCUGGUGAAUCUGCGGAUUCCGCAGUAUAUCUC here?
Its self-cleavage is 0.22.

With UAACAGGGGGCCACAGCAGAAGCGUUCACGUCGCAGCCCCUGUCAGAUUCUGGUGAAUCUGCGUAUUCUGCUAUAUAUCCC as the variant, how does the self-cleavage read?
The self-cleavage was 0.43.

Which self-cleavage does the source give for UAACAGGGGGCCACAGCAGAAGCGUUCACGUCGCAGCCCCUGUCAGAUUCUGGUGAAUCUGCGAAAUCUGCUGUAUGUCCC here?
Its self-cleavage is 0.36.

Which self-cleavage does the source give for UAACAGGGGGCCACAGCAGAAGCGUUCACGUCGCAGCCCCUGUCAGAUUCUGGUGAAUCUGCGAAAUCCGUUGUGUACCUC here?
The self-cleavage was 0.23.

Which self-cleavage does the source give for UAACAGGGGGCCACAGCAGAAGCGUUCACGUCGCAGCCCCUGUCAGAUUCUGGUGAAUCUGCGGAUUCUGCAGUAUAUAUC here?
Its self-cleavage is 1.1.

Which self-cleavage does the source give for UAACAGGGGGCCACAGCAGAAGCGUUCACGUCGCAGCCCCUGUCAGAUUCUGGUGAAUCUGCGGAUUCCGCUGCAUAUCUC here?
The self-cleavage was 0.59.

Which self-cleavage does the source give for UAACAGGGGGCCACAGCAGAAGCGUUCACGUCGCAGCCCCUGUCAGAUUCUGGUGAAUCUGCGGAUUCUGCUGCAUGUCUC here?
The self-cleavage was 0.96.

With UAACAGGGGGCCACAGCAGAAGCGUUCACGUCGCAGCCCCUGUCAGAUUCUGGUGAAUCUGCGAGGUCCGCUGUAUCUCCC as the variant, how does the self-cleavage read?
Its self-cleavage is 0.

Which self-cleavage does the source give for UAACAGGGGGCCACAGCAGAAGCGUUCACGUCGCAGCCCCUGUCAGAUUCUGGUGAAUCUGCGAAAUCCUCUGUAUAUCUC here?
Its self-cleavage is 0.31.

With UAACAGGGGGCCACAGCAGAAGCGUUCACGUCGCAGCCCCUGUCAGAUUCUGGUGAAUCUGCGAAAUCUGCUGUAUGCCUC as the variant, how does the self-cleavage read?
Its self-cleavage is 0.27.

With UAACAGGGGGCCACAGCAGAAGCGUUCACGUCGCAGCCCCUGUCAGAUUCUGGUGAAUCUGCGAGUUCUGCUGUACGUCUC as the variant, how does the self-cleavage read?
The self-cleavage was 0.34.

For UAACAGGGGGCCACAGCAGAAGCGUUCACGUCGCAGCCCCUGUCAGAUUCUGGUGAAUCUGCGGAUUCUGCAGUAUACCUC, which self-cleavage is on record?
Its self-cleavage is 0.95.

With UAACAGGGGGCCACAGCAGAAGCGUUCACGUCGCAGCCCCUGUCAGAUUCUGGUGAAUCUGCGAGUCCUGCAGUAUAUCUC as the variant, how does the self-cleavage read?
Its self-cleavage is 0.26.

With UAACAGGGGGCCACAGCAGAAGCGUUCACGUCGCAGCCCCUGUCAGAUUCUGGUGAAUCUGCGAAAUGUGCCGUAUAUCUC as the variant, how does the self-cleavage read?
Its self-cleavage is 0.41.

Which self-cleavage does the source give for UAACAGGGGGCCACAGCAGAAGCGUUCACGUCGCAGCCCCUGUCAGAUUCUGGUGAAUCUGCGUAUUCAGCUGUGUAUCUC here?
Its self-cleavage is 0.2.

Which self-cleavage does the source give for UAACAGGGGGCCACAGCAGAAGCGUUCACGUCGCAGCCCCUGUCAGAUUCUGGUGAAUCUGCGUAUUCUGCUGCAUAUCCC here?
Its self-cleavage is 0.35.

Which self-cleavage does the source give for UAACAGGGGGCCACAGCAGAAGCGUUCACGUCGCAGCCCCUGUCAGAUUCUGGUGAAUCUGCGAGUUCUGCUGAAUAUCCC here?
The self-cleavage was 1.03.

Which self-cleavage does the source give for UAACAGGGGGCCACAGCAGAAGCGUUCACGUCGCAGCCCCUGUCAGAUUCUGGUGAAUCUGCGAUUUCUGCUGUAAGUCUC here?
The self-cleavage was 0.23.

With UAACAGGGGGCCACAGCAGAAGCGUUCACGUCGCAGCCCCUGUCAGAUUCUGGUGAAUCUGCGUAUCCUGCUAUAUAUCUC as the variant, how does the self-cleavage read?
The self-cleavage was 0.24.
